For assay [1], the target named is kinesin heavy chain KIF5B (mouse (endogenous in hippocampus)) (UniProt Q61768). Put plainly: vesicle immunoisolation; detergent-free adult mouse hippocampal homogenate, 8/35 interphase of a sucrose step gradient; incubated overnight with dynein (DIC) or kinesin (KIF5B) antibody, then protein G dynabeads; Western blot of what came down with the intact vesicles. Background: Immunoblotting shows a protein as a band on a membrane.

Amino acid sequences for entries named in this document (tags omitted). Residues count along the entry.
UniProt Q61768: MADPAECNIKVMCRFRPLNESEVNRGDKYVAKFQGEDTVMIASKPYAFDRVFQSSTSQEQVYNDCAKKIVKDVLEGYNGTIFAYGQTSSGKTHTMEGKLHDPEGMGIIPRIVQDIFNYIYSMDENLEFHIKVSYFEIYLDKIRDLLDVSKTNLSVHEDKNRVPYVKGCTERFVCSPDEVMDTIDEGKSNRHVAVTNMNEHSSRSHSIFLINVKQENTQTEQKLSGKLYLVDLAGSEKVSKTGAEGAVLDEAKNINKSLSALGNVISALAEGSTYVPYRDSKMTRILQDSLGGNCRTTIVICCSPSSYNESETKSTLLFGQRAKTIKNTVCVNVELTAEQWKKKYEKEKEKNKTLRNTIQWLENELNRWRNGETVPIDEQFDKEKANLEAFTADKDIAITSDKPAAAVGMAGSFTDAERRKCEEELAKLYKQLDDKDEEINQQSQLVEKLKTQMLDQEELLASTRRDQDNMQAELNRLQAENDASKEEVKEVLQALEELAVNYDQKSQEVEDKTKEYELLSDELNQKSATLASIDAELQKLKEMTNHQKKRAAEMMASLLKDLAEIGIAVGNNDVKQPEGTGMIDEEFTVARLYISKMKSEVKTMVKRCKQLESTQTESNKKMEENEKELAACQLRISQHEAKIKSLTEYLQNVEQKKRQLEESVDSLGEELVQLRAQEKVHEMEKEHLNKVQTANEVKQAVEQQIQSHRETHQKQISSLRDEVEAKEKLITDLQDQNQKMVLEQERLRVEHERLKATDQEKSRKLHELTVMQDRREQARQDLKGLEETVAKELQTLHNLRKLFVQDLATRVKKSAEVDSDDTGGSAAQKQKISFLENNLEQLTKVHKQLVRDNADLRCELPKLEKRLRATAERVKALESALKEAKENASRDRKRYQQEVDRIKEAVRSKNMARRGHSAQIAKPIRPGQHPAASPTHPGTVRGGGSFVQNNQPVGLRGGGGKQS
UniProt P19490, residues 19-907: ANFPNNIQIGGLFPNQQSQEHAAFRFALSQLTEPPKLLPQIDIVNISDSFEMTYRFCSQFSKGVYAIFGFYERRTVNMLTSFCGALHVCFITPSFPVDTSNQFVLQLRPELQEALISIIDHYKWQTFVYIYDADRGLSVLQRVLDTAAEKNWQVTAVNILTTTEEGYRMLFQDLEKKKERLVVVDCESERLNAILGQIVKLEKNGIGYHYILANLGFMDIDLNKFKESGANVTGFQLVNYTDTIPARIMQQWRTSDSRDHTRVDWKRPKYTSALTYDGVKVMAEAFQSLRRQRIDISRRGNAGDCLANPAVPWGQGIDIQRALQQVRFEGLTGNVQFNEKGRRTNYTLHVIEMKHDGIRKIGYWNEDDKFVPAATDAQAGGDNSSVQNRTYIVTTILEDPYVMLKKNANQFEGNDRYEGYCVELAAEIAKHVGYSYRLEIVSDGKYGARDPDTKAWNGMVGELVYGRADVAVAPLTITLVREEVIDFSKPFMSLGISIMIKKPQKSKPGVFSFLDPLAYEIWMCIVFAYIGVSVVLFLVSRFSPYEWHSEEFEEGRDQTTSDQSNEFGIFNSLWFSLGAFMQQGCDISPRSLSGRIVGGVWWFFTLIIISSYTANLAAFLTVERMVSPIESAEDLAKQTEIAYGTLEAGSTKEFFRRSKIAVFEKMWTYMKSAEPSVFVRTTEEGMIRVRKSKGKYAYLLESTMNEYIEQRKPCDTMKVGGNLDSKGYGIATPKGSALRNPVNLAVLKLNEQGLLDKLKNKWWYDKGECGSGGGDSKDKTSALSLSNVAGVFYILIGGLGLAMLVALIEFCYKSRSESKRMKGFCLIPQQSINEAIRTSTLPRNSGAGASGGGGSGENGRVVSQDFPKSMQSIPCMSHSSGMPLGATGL
UniProt P19491, residues 22-883: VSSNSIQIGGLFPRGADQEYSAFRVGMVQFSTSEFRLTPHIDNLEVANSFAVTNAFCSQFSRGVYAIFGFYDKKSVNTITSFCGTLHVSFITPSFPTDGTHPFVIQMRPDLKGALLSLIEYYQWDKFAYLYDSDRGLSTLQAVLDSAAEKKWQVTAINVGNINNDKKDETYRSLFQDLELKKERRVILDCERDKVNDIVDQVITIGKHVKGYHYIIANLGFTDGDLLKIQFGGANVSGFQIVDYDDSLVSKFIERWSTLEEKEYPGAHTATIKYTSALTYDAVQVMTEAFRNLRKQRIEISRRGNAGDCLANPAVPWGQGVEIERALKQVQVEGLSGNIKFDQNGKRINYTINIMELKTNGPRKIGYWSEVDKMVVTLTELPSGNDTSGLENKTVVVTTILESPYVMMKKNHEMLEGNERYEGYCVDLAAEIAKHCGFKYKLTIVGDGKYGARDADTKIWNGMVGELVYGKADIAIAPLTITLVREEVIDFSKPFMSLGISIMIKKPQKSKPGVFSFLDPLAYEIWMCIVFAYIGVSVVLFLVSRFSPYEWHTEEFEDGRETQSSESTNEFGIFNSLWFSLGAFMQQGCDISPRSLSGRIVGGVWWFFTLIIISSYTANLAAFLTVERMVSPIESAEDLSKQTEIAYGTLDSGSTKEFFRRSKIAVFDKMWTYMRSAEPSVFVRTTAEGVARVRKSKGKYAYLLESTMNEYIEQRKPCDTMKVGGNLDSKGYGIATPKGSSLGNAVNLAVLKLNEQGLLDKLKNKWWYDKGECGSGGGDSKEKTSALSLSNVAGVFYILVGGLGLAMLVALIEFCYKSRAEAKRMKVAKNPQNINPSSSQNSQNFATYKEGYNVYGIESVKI

Assay [2] concerns the target HA-tagged Ferric Chelate Reductase 1 Like protein (HA-FRRS1L) (mouse) (UniProt B1AXV0). Put plainly: co-IP; dimerization experiment: HEK cells co-transfected with HA-FRRS1L and FRRS1L-Myc for 48 h; lysates immunoprecipitated with an anti-HA antibody; blotted with anti-Myc.
For assay [3], the target named is Flag-tagged GluA1 (Flag-GluA1) subunit of the AMPAR (UniProt P19490). The experiment in a line: co-IP; HEK cells co-transfected with HA-FRRS1L and Flag-GluA1 or Flag-GluA2(Q); lysis buffer 25 mM Tris pH 7.4, 1% Triton X-100, 150 mM NaCl, 5% glycerol, 1 mM EDTA; anti-Flag M2 affinity beads overnight at 4°C; blotted with anti-HA.
Assay [4] addresses Flag-tagged GluA2 (Flag-GluA2 (Q)) subunit of the AMPAR (UniProt P19491). Described as above.

These are yes or no findings as the source states them, for the method shown. For some assays here: In cells and extracts the contact can be indirect. Some entries that bind do so weakly or less than the wild type. For some assays here: Tags and fused reporters may be left off the sequences shown.

B1: TARP γ8 (protein, UniProt Q8VHW2 1-423)
chain: MESLKRWNEERGLWCEKGVQVLLTTIGAFSAFGLMTIAISTDYWLYTRALICNTTNLTAGDDGPPHRGGSGSSEKKDPGGLTHSGLWRICCLEGLKRGVCVKINHFPEDTDYDHDSAEYLLRVVRASSIFPILSAILLLLGGVCVAASRVYKSKRNIILGAGILFVAAGLSNIIGVIVYISANAGEPGPKRDEEKKNHYSYGWSFYFGGLSFILAEVIGVLAVNIYIERSREAHCQSRSDLLKAGGGAGGSGGSGPSAILRLPSYRFRYRRRSRSSSRGSSEASPSRDASPGGPGGPGFASTDISMYTLSRDPSKGSVAAGLASAGGGGSGAGVGAYGGAAGAAGGGGAGSERDRGSSAGFLTLHNAFPKEAASGVTVTVTGPPAAPAPAPAPPAPAAPAPGTLSKEAAASNTNTLNRKTTPV
Turning to B1, the binding result in assay [1] is given as “no binding”.

B2: HA-tagged Ferric Chelate Reductase 1 Like protein (HA-FRRS1L) (protein, UniProt B1AXV0 29-293)
chain: SPADDSAGPGGRGPRGRARGDAGADEAVPRHDSSYGTFASEFYDLRYLSEEGYPFPTAPPVDPFAKIKVEDCGRTKGCFRYGKPGCNAETCDYFLSYRMIGADVEFELSADTDGWVAVGFSSDKKMGGDDVMACVHDDNGRVRIQHFYNVGQWAKEVQRNPARDEEGVFENNRVTCRFKRPVNVPRDETIVDLHLSWYYLFAWGPAIQGAITRHDIDSPPASERVVSIYKYEDIFMPSAAYQTFSSPFCLLLIVALTFYLLMGTP
Regarding B2, the binding entry was “no binding” in assay [2], “binds” in assay [3] and “binds” in assay [4].

B3: endogenous (native) FRRS1L (protein, UniProt B1AXV0 29-293)
chain: SPADDSAGPGGRGPRGRARGDAGADEAVPRHDSSYGTFASEFYDLRYLSEEGYPFPTAPPVDPFAKIKVEDCGRTKGCFRYGKPGCNAETCDYFLSYRMIGADVEFELSADTDGWVAVGFSSDKKMGGDDVMACVHDDNGRVRIQHFYNVGQWAKEVQRNPARDEEGVFENNRVTCRFKRPVNVPRDETIVDLHLSWYYLFAWGPAIQGAITRHDIDSPPASERVVSIYKYEDIFMPSAAYQTFSSPFCLLLIVALTFYLLMGTP
Regarding B3, the binding result in assay [1] is listed as “no binding”.
